Reference: PubChem BioAssay AID493208 (National Center for Advancing Translational Sciences (NCATS), 2011)
Hit rate of the full screen: of about 44,000 compounds, about 340 (0.77%) were called active. Another 5% or so got no clear call; they are omitted. The call rests on the fitted dose curve; in most records, active means well fitted inhibition curve with a large enough effect; inconclusive means small, poorly fitted or top-dose-only effect; inactive means flat fitted curve, though single readings scatter. The list shows a part of the results.

assay: Acumen qHTS Assay for Inhibitors of the mTORC1 Signaling Pathway in MEF (Tsc2-/-, p53-/-) Cells: Sytravon; settings: phospho-rpS6 immunofluorescence/PI, 24 h; series mostly up to 38.3 µM; activity change, negative = inhibition: at the top concentration; further: nearly all actives have a fitted effect of over 50% in size
In short: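 Readout is phospho-S6 Alexa 488 signal normalized to PI per well, reported as % active cells with thresholds set from rapamycin (7.5 nM) and DMSO controls. Cells: Tsc2-/-, p53-/- MEFs, 24 hrs compound at 37 C; PI cell number serves as viability.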

Activity change, negative = inhibition, inactive:
COc1cccc(NC(=O)CN2C(=O)c3cccc4cccc2c34)c1 -0.656%
Cn1ncc2c(Nc3cc(C(F)(F)F)ccc3Cl)ncnc21 11.4%
CC(NC(=O)c1ccc2c(c1)N(Cc1ccc(Cl)cc1)C(=O)CS2)c1ccccc1 (stereo unspecified) -14.7%
CCN(c1cccc(C)c1)S(=O)(=O)c1cc(Br)cc2c1N(C(C)=O)C(C)C2 (stereo unspecified) 0.171%
COc1ccc2c(c1)c1c(c(=O)n(-c3ccccc3C)c(=O)n1Cc1cccc(C(F)(F)F)c1)n2C 0.782%
CC(C)OC(=O)c1ccc(Cn2nnc3sc4c(c3c2=O)CCCC4)cc1 -2.03%
CCc1ccc(-n2nnc(-c3nc(-c4cccs4)no3)c2N)cc1 0.254%
CC1CCN(C(=O)CSc2n[nH]c(-c3ccc(F)cc3)n2)CC1 -11.9%
CCCN(c1c(C)n(C)n(-c2ccccc2)c1=O)S(=O)(=O)c1ccc(C)cc1 1.13%
CCc1nc2ccc(C(=O)N3CCN(c4cc(Cl)ccc4C)CC3)cc2nc1CC -1.18%
Cc1ccc(S(=O)(=O)NCC2CCC(C(=O)NCCc3ccccc3)CC2)cc1 (stereo unspecified) 2.59%
CC(=O)Nc1ccc(S(=O)(=O)NC2(C(F)(F)F)C(=O)Nc3c2c(=O)[nH]c(=O)n3-c2cccc(Cl)c2)cc1 (stereo unspecified) 3.62%
CCOC(=O)c1cnc2cc(C(F)(F)F)ccc2c1Nc1ccc(F)cc1F -16.9%
CCC(=O)N1CCc2cc(CNS(=O)(=O)c3cc(OC)ccc3OC)ccc21 0%
O=C(c1ccc(F)cc1)c1cn(Cc2ccccc2F)c2cc3c(cc2c1=O)OCCO3 0.385%
Cc1cccc(-c2nc(CN3CCCC(C(=O)N4CCN(c5cc(Cl)ccc5C)CC4)C3)c(C)o2)c1 (stereo unspecified) -15%
Oc1ccc(Cl)cc1C1=Nc2ccccc2N=C(c2ccccc2)C1 8.97%
Cc1ccc(CSc2nc3cccnc3n2Cc2ccc(C(=O)NCc3ccco3)cc2)cc1 0.244%
Cc1ccc(-c2nc3c(c(SCc4ccc(Br)cc4)n2)Cc2c(CO)cnc(C)c2O3)cc1 1.87%
O=C(CSc1nc2c([nH]c3ccccc32)c(=O)n1-c1ccc(Cl)cc1)N1CCc2ccccc21 -17.6%
CSc1cccc(NC(=O)c2cnn(-c3ccc(F)cc3)c2-n2cccc2)c1 -2.32%
O=C(Cn1ncn2c(cc3sccc32)c1=O)NCCc1ccccc1 -2.03%
COc1ccc(CCNC(=O)CCc2c(C)c3cc4c(C)c(C)oc4cc3oc2=O)cc1OC 1.8%
Cc1ccc2c(=O)cc(C(=O)Nc3ccc(S(=O)(=O)N(C)c4ccccc4)cc3)oc2c1C 1.39%
O=C(CSc1nc2ccccc2nc1Cc1ccc(Cl)cc1)Nc1ccc2c(c1)OCO2 -18.8%
CC(=O)N1c2ccccc2C(=O)C1N1CCN(c2ccccc2F)CC1 (stereo unspecified) 8.02%
